According to the antibiotic and cytotoxicity screens of Wong et al. (2023):
The other results are listed elsewhere or left out.

What was measured:
[1] = system: HSkMC (human skeletal muscle cells); test: cytotoxicity call (relative viability < 0.9); conditions: 10 µM
[2] = system: S. aureus RN4220; test: growth inhibition call (relative growth <= 0.2); conditions: 50 µM

## C[C@H](CO)N1C[C@H](C)[C@@H](CN(C)Cc2ccc(C(=O)Nc3ccccc3N)cc2)Oc2c(NS(=O)(=O)c3ccc(Cl)cc3)cccc2C1=O
[1]
  cytotoxicity call: inactive
[2]
  growth inhibition call: inactive

## Cc1noc(C)c1NC(=O)Nc1ccc2c(c1)CC(=O)N([C@H](C)CO)C[C@H](C)[C@H](CN(C)CC1CC1)O2
[1]
  cytotoxicity call: inactive
[2]
  growth inhibition call: inactive

## COc1ccc(S(=O)(=O)N(C)C[C@@H]2Oc3ncc(-c4ccncc4)cc3C(=O)N([C@H](C)CO)C[C@H]2C)cc1
[1]
  cytotoxicity call: inactive
[2]
  growth inhibition call: inactive

## C=CCOc1ccc(C(=O)C2=C(O)C(=O)N(CCCN3CCOCC3)[C@@]23C(=O)N(C)c2ccccc23)cc1C
[1]
  cytotoxicity call: inactive
[2]
  growth inhibition call: inactive

## C[C@@H]1CN([C@@H](C)CO)C(=O)c2cc(NC(=O)C3CCCCC3)ccc2O[C@H]1CN(C)Cc1ccc(-c2ccccc2)cc1
[1]
  cytotoxicity call: inactive
[2]
  growth inhibition call: inactive

## C[C@@H]1CN([C@H](C)CO)C(=O)Cc2cc(NC(=O)CCC(F)(F)F)ccc2O[C@@H]1CN(C)S(=O)(=O)c1ccccc1
[1]
  cytotoxicity call: inactive
[2]
  growth inhibition call: inactive

## CO[C@@H]1CN(C)C(=O)c2cc(NC(=O)NC3CCCCC3)ccc2OC[C@@H](C)N(CCc2ccccc2)C[C@@H]1C
[1]
  cytotoxicity call: inactive
[2]
  growth inhibition call: inactive

## C[C@@H]1CN([C@@H](C)CO)C(=O)c2cc(NS(=O)(=O)c3cn(C)cn3)ccc2O[C@@H]1CN(C)C(=O)Nc1ccccc1
[1]
  cytotoxicity call: inactive
[2]
  growth inhibition call: inactive

## CCCCCCCc1c(C)c(O)cc2c1[nH]c1ccccc12
[1]
  cytotoxicity call: inactive
[2]
  growth inhibition call: inactive

## O=C(C[C@H]1CC[C@H]2[C@@H](COC[C@H](O)CN2Cc2cc(F)ccc2F)O1)N[C@H]1CCN(Cc2ccccc2)C1
[1]
  cytotoxicity call: inactive
[2]
  growth inhibition call: inactive

## C[C@@H]1CN([C@H](C)CO)C(=O)c2cc(NS(=O)(=O)c3ccccc3)ccc2O[C@@H](C)CCCCO[C@H]1CN(C)C(=O)C1CCCCC1
[1]
  cytotoxicity call: inactive
[2]
  growth inhibition call: inactive

## O=C(O)CCCNc1n[nH]c(=O)[nH]c1=O
[1]
  cytotoxicity call: inactive
[2]
  growth inhibition call: inactive

## Cc1noc(C)c1S(=O)(=O)Nc1ccc2c(c1)CC(=O)N([C@@H](C)CO)C[C@H](C)[C@H](CN(C)Cc1ccc3c(c1)OCO3)O2
[1]
  cytotoxicity call: inactive
[2]
  growth inhibition call: inactive

## C[C@@H]1CCCCO[C@@H](CN(C)Cc2ccc(Cl)c(Cl)c2)[C@@H](C)CN([C@H](C)CO)C(=O)c2cc(NS(=O)(=O)c3ccc(Cl)cc3)ccc2O1
[1]
  cytotoxicity call: inactive
[2]
  growth inhibition call: inactive

## C[C@H](CO)N1C[C@H](C)[C@H](CN(C)Cc2ccc(Oc3ccccc3)cc2)Oc2c(NC(=O)C3CCCCC3)cccc2C1=O
[1]
  cytotoxicity call: inactive
[2]
  growth inhibition call: inactive

## C[C@@H]1CN([C@H](C)CO)C(=O)c2cc(-c3cncnc3)cnc2O[C@H]1CN(C)C(=O)Nc1ccc2c(c1)OCO2
[1]
  cytotoxicity call: inactive
[2]
  growth inhibition call: inactive

## COc1ccc(NC(=O)N(C)C[C@H]2OCCCC[C@H](C)Oc3ccc(NC(=O)Cc4ccccc4)cc3C(=O)N([C@H](C)CO)C[C@H]2C)cc1
[1]
  cytotoxicity call: inactive
[2]
  growth inhibition call: inactive

## Cn1c(=O)c2c(ncn2CC(=O)Nc2nc3ccccc3[nH]2)n(C)c1=O
[1]
  cytotoxicity call: inactive
[2]
  growth inhibition call: inactive

## C[C@H]1CN([C@@H](C)CO)C(=O)c2cc(/C=C/c3ccccc3)cnc2O[C@@H]1CN(C)C(=O)c1cnccn1
[1]
  cytotoxicity call: inactive
[2]
  growth inhibition call: inactive

## N#CCCn1nc2c(c1N)CCC2
[1]
  cytotoxicity call: inactive
[2]
  growth inhibition call: inactive

## Cc1noc(C)c1S(=O)(=O)N(C)C[C@H]1Oc2c(NC(=O)C3CCCCC3)cccc2C(=O)N([C@H](C)CO)C[C@H]1C
[1]
  cytotoxicity call: inactive
[2]
  growth inhibition call: inactive

## COc1cc(C(=O)NS(=O)(=O)c2ccccc2C)ccc1Cc1cn(C)c2ccc(NC(=O)OC3CCCC3)cc12
[1]
  cytotoxicity call: inactive
[2]
  growth inhibition call: active

## C[C@H]1CN([C@@H](C)CO)C(=O)Cc2cc(NC(=O)Cc3ccccc3)ccc2O[C@@H]1CN(C)S(C)(=O)=O
[1]
  cytotoxicity call: inactive
[2]
  growth inhibition call: inactive

## CCCC#Cc1ccc2c(c1)O[C@@H](CN(C)S(=O)(=O)c1cccc(OC)c1)[C@@H](C)CN([C@@H](C)CO)S2(=O)=O
[1]
  cytotoxicity call: inactive
[2]
  growth inhibition call: inactive

## C[C@H](CO)N1C[C@H](C)[C@@H](CN(C)Cc2ccc3c(c2)OCO3)Oc2ccc(NS(=O)(=O)c3ccccc3)cc2CC1=O
[1]
  cytotoxicity call: inactive
[2]
  growth inhibition call: inactive

## CCS(=O)(=O)N1C[C@]2(C1)CN([C@@H](CO)c1c2c2ccc(cc2n1C)OC)C(=O)c1ccc(cc1)F
[1]
  cytotoxicity call: inactive
[2]
  growth inhibition call: inactive

## C[C@H]1CN([C@@H](C)CO)C(=O)c2cc(C#CCN(C)C)cnc2O[C@H]1CN(C)C(=O)c1cnccn1
[1]
  cytotoxicity call: inactive
[2]
  growth inhibition call: inactive

## CNC(=O)C[C@H]1CC[C@@H]2[C@H](COC[C@H](O)CN2C(=O)Nc2ccc3c(c2)OCO3)O1
[1]
  cytotoxicity call: inactive
[2]
  growth inhibition call: inactive
